{"source": "PubChem BioAssay AID1460", "about": "(National Center for Advancing Translational Sciences (NCATS), 2008)", "note": "The campaign covered roughly 270,000 compounds. About 5,800 (2.1%) were called active. The inconclusive results got no clear call from the source; some entries with a clear call stand among them for comparison. The call rests on the fitted dose curve; in most records, active means well fitted inhibition curve with a large enough effect; inconclusive means small, poorly fitted or top-dose-only effect; inactive means flat fitted curve, though single readings scatter. Where the call is inconclusive, the potency comes from a doubtful curve fit. Potency means the concentration at half of the fitted maximal effect; tags describe the fitted curve by direction and shape."}
{"molecular_target": "Microtubule-associated protein tau (Homo sapiens) (UniProt P10636)", "sequence (P10636 whole entry, looked up, the tested form may be a part)": "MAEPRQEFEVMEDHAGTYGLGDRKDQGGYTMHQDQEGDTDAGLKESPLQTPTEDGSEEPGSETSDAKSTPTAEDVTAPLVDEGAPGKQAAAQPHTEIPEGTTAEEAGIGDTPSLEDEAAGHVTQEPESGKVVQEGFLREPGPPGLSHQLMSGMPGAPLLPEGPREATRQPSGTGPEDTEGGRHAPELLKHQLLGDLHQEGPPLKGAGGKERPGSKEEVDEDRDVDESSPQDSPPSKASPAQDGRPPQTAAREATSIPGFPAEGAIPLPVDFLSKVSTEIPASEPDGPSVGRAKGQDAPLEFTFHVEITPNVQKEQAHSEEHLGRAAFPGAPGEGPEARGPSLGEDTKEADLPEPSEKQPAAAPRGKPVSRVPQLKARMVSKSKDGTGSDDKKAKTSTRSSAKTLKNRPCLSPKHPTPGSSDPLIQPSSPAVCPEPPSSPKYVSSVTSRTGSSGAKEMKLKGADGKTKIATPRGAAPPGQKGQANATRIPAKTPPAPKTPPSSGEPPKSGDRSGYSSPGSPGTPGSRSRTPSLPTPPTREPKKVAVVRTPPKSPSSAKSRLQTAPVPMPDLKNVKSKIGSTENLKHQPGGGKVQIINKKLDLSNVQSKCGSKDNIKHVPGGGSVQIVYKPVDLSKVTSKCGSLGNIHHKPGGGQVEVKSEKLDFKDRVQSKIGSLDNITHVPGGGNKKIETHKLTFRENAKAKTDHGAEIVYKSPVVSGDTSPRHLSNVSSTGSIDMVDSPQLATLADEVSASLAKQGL", "experiment": "qHTS for Inhibitors of Tau Fibril Formation, Thioflavin T Binding; further: nearly all actives have a fitted effect of over 55% in size", "conditions": "recombinant tau K18 P301L (four-repeat tau fragment), heparin-induced fibrillization, ThT fluorescence; series mostly up to 57.4 µM", "procedure,_shortened": "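Tau K18 P301L fragment (15 uM unlabeled plus 0.24 uM Alexa 594-labeled) in 100 mM sodium acetate pH 7 with compound, fibrillization induced by 20 uM heparin for 6 hr at 37 C. Thioflavin T (30 uM) added, fluorescence read after 1 hr (ex 450, em 510 nm).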"}
{"smiles": "COc1ccc2c(n1)Sc1nc3ccccc3nc1N2", "Potency": "active: 1 µM"}
{"smiles": "Cc1ccccc1C(=O)N1CCN(c2ccc(NC(=O)c3ccco3)cc2Cl)CC1", "Potency": "inconclusive: 10 µM [inhibitor, partial curve]"}
{"smiles": "CCC(C(=O)Nc1cc(C)ccc1C)n1c(=O)c(C(F)(F)F)nc2ccccc21", "note": "(centres undefined)", "Potency": "inconclusive: 20 µM [inhibitor, single point]"}
{"smiles": "O=C(CN1CCN(c2ccc(O)cc2)CC1)NC(=O)NCc1ccco1", "Potency": "inactive"}
{"smiles": "CCOc1ccccc1CN(Cc1ccco1)S(=O)(=O)c1ccc(-n2cnnn2)c(OC)c1", "Potency": "inconclusive: 31.6 µM [inhibitor, partial curve]"}
{"smiles": "COc1ccc(C(=O)/C=C/c2cn(CC(O)CN3CCc4ccccc43)c3ccccc23)cc1OC", "note": "(centres undefined)", "Potency": "inconclusive: 3.16 µM [inhibitor, full curve]"}
{"smiles": "COc1ccc(C(=O)N/N=C(/C)c2cccc(NC(=O)C(F)(F)F)c2)cc1", "Potency": "inconclusive: 20 µM [inhibitor, single point]"}
{"smiles": "COc1ccc(OC)c(/C=C/c2nc3ccccc3c(=O)n2-c2ccc(F)c(Cl)c2)c1", "Potency": "inactive"}
{"smiles": "CCC(=O)Nc1ccc2c(c1)C(=O)c1ccccc1C2=O", "Potency": "inconclusive: 15.8 µM [inhibitor, partial curve]"}
{"smiles": "C#CCOCCOCCOCCNc1nc(N2CCN(C(=O)C(Cc3ccc(O)cc3)n3cc(C(N)CC(C)C)nn3)CC2)nc(N2CCN(C(=O)C(Cc3cc4ccccc4[nH]3)n3cc(C(N)Cc4ccc(O)cc4)nn3)CC2)n1", "note": "(centres undefined)", "Potency": "inconclusive: 31.6 µM [inhibitor, single point]"}
{"smiles": "CC(=O)N/N=C/c1cc(C(C)(C)C)cc(/C=N/NC(C)=O)c1O", "Potency": "inactive"}
{"smiles": "COc1cc(C2c3c(oc4ccccc4c3=O)C(=O)N2Cc2ccncc2)ccc1O", "note": "(centres undefined)", "Potency": "inactive"}
{"smiles": "CCOC(=O)c1ccc(NC(=O)CCCn2c(=O)c3cccn3c3ccccc32)cc1", "Potency": "inconclusive: 0.398 µM [inhibitor, full curve, poor fit]"}
{"smiles": "CCn1c(SC(C)C(=O)O)nc2sc3c(c2c1=O)CCC3", "note": "(centres undefined)", "Potency": "inactive"}
{"smiles": "C=CCc1cccc2cc(-c3nc4ccc(C)cc4[nH]3)c(=O)oc12", "Potency": "inconclusive: 1.12 µM [inhibitor, partial curve, poor fit]"}
{"smiles": "O=C1NCC(COCc2ccco2)O1", "note": "(centres undefined)", "Potency": "inconclusive: 28.2 µM [inhibitor, single point]"}
{"smiles": "Cc1ccc(C(C)C)c(OCc2ccc(C(=O)N/N=C/c3ccc(O)cc3O)cc2)c1", "Potency": "inconclusive: 3.98 µM [inhibitor, partial curve]"}
{"smiles": "CC1(C)CC(=O)CC(=O)/C1=N\\Nc1c(Cl)cc(Cl)cc1Cl", "Potency": "inconclusive: 28.2 µM [inhibitor, single point]"}
{"smiles": "COc1cc(OC)cc(C(=O)Nc2ccc(-c3nc4ccccc4s3)cc2C)c1", "Potency": "inconclusive: 0.794 µM [inhibitor, full curve]"}
{"smiles": "CC(=O)NC(NC(C)=O)c1ccc(N(C)C)cc1", "Potency": "inactive"}
{"smiles": "Nc1c(C(=O)NCc2ccco2)c2nc3ccccc3nc2n1CCc1ccccc1", "Potency": "inconclusive: 28.2 µM [inhibitor, single point]"}
{"smiles": "O=C(O)c1cccc(-n2c(O)c(C=C3N=c4ccccc4=N3)sc2=S)c1", "Potency": "inconclusive: 17.8 µM [inhibitor, partial curve]"}
{"smiles": "Cc1cc2ccccc2c(=O)[nH]1", "Potency": "inactive"}
{"smiles": "Cc1c(Br)c(=O)oc2c(Br)c(O)c(O)cc12", "Potency": "active: 12.6 µM"}
{"smiles": "CCc1ccccc1-n1cnc2cc(C(=O)NC3CCCCCC3)ccc21", "Potency": "inactive"}
{"smiles": "Cc1ccc(O)c(-c2cc3ccccc3[nH]2)c1", "Potency": "active: 12.6 µM"}
{"smiles": "CCc1cccc(NC(=S)N(CCOC)C(C)c2ccco2)c1", "note": "(centres undefined)", "Potency": "inactive"}
{"smiles": "N#C/C(=C/c1ccc(N2CCCCCC2)o1)c1cccc(F)c1", "Potency": "active: 14.1 µM"}
{"smiles": "CCCCN1C(=O)/C(=C/C=C2/C=Cc3ccccc3N2CC)SC1=S", "Potency": "inconclusive: 1.41 µM [inhibitor, partial curve]"}
{"smiles": "COc1ccc(C[C@H]2CN3C(=NC[C@@H]3Cc3ccccc3)N2CCNC(=O)c2ccc(C)c(Br)c2)cc1", "Potency": "inconclusive: 35.5 µM [inhibitor, single point]"}
{"smiles": "O=C(O)c1ccc(NS(=O)(=O)c2ccc3c(c2)C2C=CCC2C(c2ccccc2F)N3)cc1", "note": "(centres undefined)", "Potency": "active: 31.6 µM"}
{"smiles": "CC(=O)c1ccc(NC(=O)Nc2sc3nc4n(c(=O)c3c2C)CCC(C)CC4)cc1", "note": "(centres undefined)", "Potency": "inconclusive: 17.8 µM [inhibitor, partial curve]"}
{"smiles": "CC1CN(c2ccc([N+](=O)[O-])nc2)CC(C)O1", "note": "(centres undefined)", "Potency": "inconclusive: 28.2 µM [inhibitor, single point]"}
{"smiles": "COc1ccc(NC(=O)c2c(Nc3ccccc3)sc(C(=O)c3ccc(F)cc3)c2N)cc1", "Potency": "active: 11.2 µM"}
{"smiles": "Cc1ccc2c(c1)NC(=O)c1cccnc1N2", "Potency": "inconclusive: 39.8 µM [inhibitor, partial curve]"}
{"smiles": "CCOc1ccc(C(=O)Oc2c(Sc3ccccc3)c(C)nn2C(C)(C)C)cc1OCC", "Potency": "inconclusive: 12.6 µM [inhibitor, partial curve]"}
{"smiles": "CC(/C=C/c1ccccc1)=N\\Nc1nc(C)cc(C)n1", "Potency": "inconclusive: 22.4 µM [inhibitor, single point]"}
{"smiles": "CCOC(=O)c1cc2c(ccn2C)n1CC(=O)N(Cc1ccccc1)c1ccc(F)cc1", "Potency": "inconclusive: 11.2 µM [inhibitor, partial curve, poor fit]"}
{"smiles": "CCc1ccc2occ(CC(=O)Nc3ccc(OC)c(Cl)c3)c2c1", "Potency": "inconclusive: 2 µM [inhibitor, single point]"}
{"smiles": "Cc1nc(NCc2ccccc2)c2cc[nH]c2n1", "Potency": "inactive"}
{"smiles": "O=C1CSCN1c1cc(Cl)ccc1Cl", "Potency": "inconclusive: 3.16 µM [activator, full curve, poor fit]"}
{"smiles": "COc1cccc(NC(C)(C)c2nnnn2-c2c(C)cccc2C)c1", "Potency": "inconclusive: 35.5 µM [inhibitor, single point]"}
{"smiles": "CCOC(=O)c1c(NC(=S)Nc2ccc(OC)cc2)sc2c1CCCCC2", "Potency": "inactive"}
{"smiles": "COC(=O)c1ccccc1NC(=O)Cn1c(=O)n(Cc2ccccc2)c(=O)c2c(C)c(C)sc21", "Potency": "inactive"}
{"smiles": "Cc1[nH]c2ccccc2c1C1(O)C(=O)N(Cc2ccccc2)c2ccc(Cl)cc21", "note": "(centres undefined)", "Potency": "inconclusive: 2.82 µM [inhibitor, partial curve]"}
{"smiles": "COc1ccc(N(C=O)C(=S)SC)cc1", "Potency": "inconclusive: 31.6 µM [inhibitor, partial curve, poor fit]"}
{"smiles": "O=C(CN1C(=O)CSc2ccc(S(=O)(=O)N3CCCC3)cc21)NCc1ccccc1Cl", "Potency": "inactive"}
{"smiles": "COc1ccc(-c2nnc(NC(=O)c3ccc(S(=O)(=O)N4CCCc5ccccc54)cc3)o2)cc1", "Potency": "inactive"}
{"smiles": "CSc1ccc(-c2nc3cccc(C)n3c2Nc2ccc3c(c2)OCO3)cc1", "Potency": "inconclusive: 2.82 µM [inhibitor, full curve]"}
{"smiles": "O=C(CSc1cccc2cccnc12)N/N=C/c1ccc(F)cc1", "Potency": "inconclusive: 3.98 µM [inhibitor, partial curve]"}
{"smiles": "Cc1cc(C)n(-c2nc(NCC3CCCO3)c3c4c(sc3n2)COC(C)(C)C4)n1", "note": "(centres undefined)", "Potency": "inactive"}
{"smiles": "COc1cc2c(cc1NC(=O)c1cccnc1)oc1ccccc12", "Potency": "inconclusive: 39.8 µM [activator, single point]"}
{"smiles": "NS(=O)(=O)c1ccc(N2N=C(c3ccc(Br)cc3)CC2c2ccc(F)cc2)cc1", "note": "(centres undefined)", "Potency": "inconclusive: 39.8 µM [inhibitor, partial curve]"}
{"smiles": "CC/C(=N/Nc1cccc(Cl)c1)c1cnnc(SC)n1", "Potency": "inconclusive: 10 µM [inhibitor, partial curve]"}
{"smiles": "CC1CCN(C(=O)CCc2ccc(Oc3cc([N+](=O)[O-])cc([N+](=O)[O-])c3)cc2)CC1", "Potency": "inconclusive: 28.2 µM [inhibitor, single point]"}
{"smiles": "Cc1cc(C)cc(OCCSc2nc3ccc(NC(=O)COc4ccccc4)cc3s2)c1", "Potency": "inconclusive: 3.16 µM [inhibitor, full curve, poor fit]"}
{"smiles": "COc1ccc(NC(=S)Nc2ncccc2C)c(OC)c1", "Potency": "inconclusive: 17.8 µM [inhibitor, partial curve]"}
{"smiles": "Cc1ccc(-n2nnc(-c3nccs3)n2)cc1", "Potency": "inactive"}
{"smiles": "CC(C)n1c(O)c(N=NC(=O)Cc2csc(N3CCOCC3)n2)c2ccccc21", "Potency": "inconclusive: 22.4 µM [inhibitor, partial curve]"}
{"smiles": "Cc1nc2ccccc2n1/N=C/c1ccc([N+](=O)[O-])s1", "Potency": "inconclusive: 3.55 µM [inhibitor, full curve]"}
{"smiles": "O=C(CCc1nnc(Cc2c[nH]c3ccccc23)o1)NC1CCCC1", "Potency": "inactive"}
{"smiles": "Cn1c(/C=C(\\C#N)C(N)=S)ccc1-c1ccc(Br)cc1", "Potency": "active: 1 µM"}
{"smiles": "CCCCNC(=S)N=Nc1c(O)n(Cc2ccccc2)c2ccccc12", "Potency": "inactive"}
{"smiles": "CC(C)C(C)(C#N)NC(=O)CSc1nc2scc(-c3ccc(F)cc3)c2c(=O)n1Cc1ccccc1", "note": "(centres undefined)", "Potency": "inactive"}
{"smiles": "CN1CCN(Cc2nc3ccccc3c(=O)n2Cc2nc(-c3cccc([N+](=O)[O-])c3)cs2)CC1", "Potency": "inconclusive: 35.5 µM [inhibitor, single point]"}
{"smiles": "COc1ccc(C(=O)CCC(=O)Nc2cccc(Cl)c2)cc1", "Potency": "inactive"}
{"smiles": "Cc1ccc([N+](=O)[O-])cc1N(CC(=O)Nc1ccc(S(=O)(=O)Nc2cccc(C(F)(F)F)c2)cc1)S(C)(=O)=O", "Potency": "inconclusive: 7.94 µM [inhibitor, partial curve]"}
{"smiles": "Cc1occc1C(=O)N/N=C/C=C/c1ccccc1[N+](=O)[O-]", "Potency": "inconclusive: 15.8 µM [inhibitor, single point]"}
{"smiles": "CCOC(=O)c1c(S(=O)(=O)N2CCCC(C(=O)N3CCN(c4cc(C)ccc4C)CC3)C2)c(C)n(C)c1C", "note": "(centres undefined)", "Potency": "inconclusive: 4.47 µM [inhibitor, partial curve, poor fit]"}
